Where a name gives a salt, the structure may show the parent alone. ± gives the standard deviation of the averaged measurements. Over roughly 1,300 compounds, “normalised cell viability” has its median near 1; the lowest 2% begin near 0.15. The list shows a part of the results.
Test system: V-C8 + BRCA2 (BRCA2-proficient hamster cells)
Test: normalised cell viability (fraction of plate median); higher = more viable cells (less toxic)
Conditions: 5 µM
Method in brief: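 In two screens, library drugs at 5 μM were given for 3 days (screen 1) or 6 days (screen 2) to hamster V-C8 cells without BRCA2 and V-C8 cells with BRCA2 restored, seeded 24 h earlier in 96-well plates. A resazurin assay gave the cell viability readout, expressed as modified robust per cent of sample against the plate median, with triplicate wells averaged.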

Row | Structure (SMILES) | normalised cell viability (treatment time: 3 days) | normalised cell viability (treatment time: 6 days)
1 | O=C1C(O)=C([C@H]2CC[C@H](c3ccc(Cl)cc3)CC2)C(=O)c2ccccc21 [Atovaquone] | 0.958 ± 0.012 | 0.922 ± 0.04
2 | Cc1ccccc1C(OCCN(C)C)c1ccccc1 (stereo not drawn) [Orphenadrine hydrochloride] | 0.962 ± 0.13 | 0.967 ± 0.025
3 | O=C1CCc2ccc(OCCCCN3CCN(c4cccc(Cl)c4Cl)CC3)cc2N1 [Aripiprazole] | 0.425 ± 0.082 | 0.347 ± 0.042
4 | CN(C)CCOC(c1ccc(Cl)cc1)c1ccccn1 (stereo not drawn) [Carbinoxamine maleate salt] | 0.989 ± 0.066 | 0.896 ± 0.035
5 | NC(=O)NC1NC(=O)NC1=O (stereo not drawn) [Allantoin] | 0.922 ± 0.11 | 1.01 ± 0.064
6 | COC(=O)C1=C(C)NC(C)=C(C(=O)OCC(C)C)C1c1ccccc1[N+](=O)[O-] (stereo not drawn) [Nisoldipine] | 0.903 ± 0.046 | 0.692 ± 0.071
7 | COC(=O)C1=C(C)NC(C)=C(C(=O)OCCN(C)Cc2ccccc2)C1c1cccc([N+](=O)[O-])c1 (stereo not drawn) [Nicardipine hydrochloride] | 0.871 ± 0.041 | 0.947 ± 0.034
8 | CN1CCN(c2c(F)cc3c(=O)c(C(=O)O)cn4c3c2SCC4)CC1 [Rufloxacin] | 0.947 ± 0.016 | 0.987 ± 0.075
9 | Cc1cnc(C(=O)NCCc2ccc(S(=O)(=O)NC(=O)NC3CCCCC3)cc2)cn1 [Glipizide] | 1.09 ± 0.029 | 1.11 ± 0.082
10 | O=C1[C@H](CC[C@H](O)c2ccc(F)cc2)[C@@H](c2ccc(O)cc2)N1c1ccc(F)cc1 [Ezetimibe] | 1.03 ± 0.04 | 1.08 ± 0.054
11 | CCC1NC(=O)c2cc(S(N)(=O)=O)c(Cl)cc2N1 (stereo not drawn) [Quinethazone] | 0.989 ± 0.058 | 0.989 ± 0.073
12 | COc1ccccc1N1CCN(CCCCNC(=O)c2ccc3ccccc3c2)CC1 | 0.982 ± 0.044 | 1.04 ± 0.088
13 | CC(O)(P(=O)(O)O)P(=O)(O)O [Etidronic acid, disodium salt] | 0.987 ± 0.016 | 1.09 ± 0.03
14 | CCN(CC)CCOc1ccc(C(=C(Cl)c2ccccc2)c2ccccc2)cc1 [Clomiphene citrate (Z,E)] | 0.124 ± 0.0093 | 0.128 ± 0.013
15 | CCCCNc1ccc(C(=O)OCCN(C)C)cc1 | 1.15 ± 0.08 | 1.11 ± 0.036
16 | CN(C)[C@@H]1C(O)=C(C(=O)NCNCCCC[C@H](N)C(=O)O)C(=O)[C@@]2(O)C(O)=C3C(=O)c4c(O)cccc4[C@@](C)(O)[C@H]3C[C@@H]12 [Lymecycline] | 0.95 ± 0.014 | 0.799 ± 0.18
17 | CN1CCOC(c2ccccc2)c2ccccc2C1 (stereo not drawn) [Nefopam hydrochloride] | 0.99 ± 0.035 | 0.983 ± 0.017

Row | Structure (SMILES) | normalised cell viability (treatment time: 3 days) | normalised cell viability (treatment time: 6 days)
18 | CN1CCC(=C2c3ccccc3CCc3sccc32)CC1 [Pizotifen malate] | 1.07 ± 0.058 | 1 ± 0.043
19 | CCC(=O)OCC(=O)[C@@]1(OC(=O)CC)[C@@H](C)C[C@H]2[C@@H]3CCC4=CC(=O)C=C[C@]4(C)[C@@]3(Cl)[C@@H](O)C[C@@]21C [Beclomethasone dipropionate] | 1 ± 0.081 | 0.987 ± 0.048
20 | CCN(CC)Cc1cc(Nc2ccnc3cc(Cl)ccc23)ccc1O [Amodiaquin dihydrochloride dihydrate] | 0.851 ± 0.042 | 0.908 ± 0.11
21 | COc1ccccc1N1CCN(CCCNc2cc(=O)n(C)c(=O)n2C)CC1 [Urapidil hydrochloride] | 0.969 ± 0.073 | 1.05 ± 0.061
22 | Cn1c(=O)c2c(ncn2CCO)n(C)c1=O [Etofylline] | 1.003 ± 0.01 | 0.989 ± 0.025
23 | CC(C)NCC(O)c1cc(O)cc(O)c1 (stereo not drawn) [Metaproterenol sulfate, orciprenaline sulfate] | 1.03 ± 0.023 | 1.04 ± 0.02
24 | C#CCN(C)CCCOc1ccc(Cl)cc1Cl [Clorgyline hydrochloride] | 1.18 ± 0.12 | 0.987 ± 0.011
25 | O=C(O)CN(CCN(CC(=O)O)CC(=O)O)CCN(CC(=O)O)CC(=O)O [Pentetic acid] | 1.01 ± 0.032 | 0.995 ± 0.047
26 | O=C(O)CCNC(=O)c1ccc(/N=N/c2ccc(O)c(C(=O)O)c2)cc1 [Balsalazide Sodium] | 0.992 ± 0.02 | 0.968 ± 0.077
27 | C[n+]1ccccc1/C=N/O [Pralidoxime chloride] | 0.99 ± 0.036 | 0.9475 ± 0.0081
28 | CCC(C)n1ncn(-c2ccc(N3CCN(c4ccc(OCC5COC(Cn6cncn6)(c6ccc(Cl)cc6Cl)O5)cc4)CC3)cc2)c1=O (stereo not drawn) [Itraconazole] | 0.909 ± 0.013 | 0.875 ± 0.14
29 | Cc1cccc(Nc2ccccc2C(=O)O)c1C [Mefenamic acid] | 1.07 ± 0.068 | 0.995 ± 0.047
30 | O=C1OC(CN2CCOCC2)CN1/N=C/c1ccc([N+](=O)[O-])o1 (stereo not drawn) [Furaltadone hydrochloride] | 0.862 ± 0.038 | 0.923 ± 0.055
31 | CNCCCN1c2ccccc2CCc2ccccc21 [Desipramine hydrochloride] | 1 ± 0.022 | 0.89 ± 0.024
32 | O=C1CCC(N2C(=O)c3ccccc3C2=O)C(=O)N1 (stereo not drawn) [Thalidomide] | 1 ± 0.034 | 1.01 ± 0.053
33 | O=C1NCCN1CCN1CCC(c2cn(-c3ccc(F)cc3)c3ccc(Cl)cc23)CC1 [Sertindole] | 0.914 ± 0.067 | 0.893 ± 0.088
34 | CCN(CC)CCNC(=O)COc1ccc(OC)cc1 [Mefexamide hydrochloride] | 1.02 ± 0.012 | 1.01 ± 0.024
